According to the RNAGym collection of RNA variant scans (doi:10.1101/gad.245936.114):
Variants at the background level are over-represented here.

B1: tRNA (parent)
chain: CUCUCGGUAGCCAAGUUGGUUUAAGGCGCAAGACUUUAAUUUAUCACUACGAAAUCUUGAGAUCGGGCGUUCGACUCGCCCCCGGGAGAUUUUUUCCUCGAGCAA

Variants of: B1
Assay: nonsense suppression (GFP-seq) (ratio to wild type); higher = more function; SUP4oc tRNA, yeast GFP reporter sort-seq
In short: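 To measure nonsense suppression, tRNA variants from a library carrying ~3% random mutations were integrated into the yeast genome alongside RFP and a GFP ochre reporter under galactose control. Growth took place in raffinose/galactose medium supplemented with 80 mg/L adenine, followed by sorting into GFP/RFP bins and Illumina sequencing of each bin (phred ≥30). For each variant with ≥100 reads and ≥30 cells, the bin median GFP/RFP values were weighted by its estimated cell share per bin and referenced to the unmutated parent tRNA.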

Nonsense suppression, 0.156:
U55C U63C

Nonsense suppression, 0.0315:
U55C G86A

Nonsense suppression, 0.0331:
U55C G73A

Nonsense suppression, ≤ 0.026:
U55C C72A A74G C82U
U55C C80A
U55C G61A G73U C81G
U55C G61U G84C
U55C G66U
U55C G67A C80G
U55C G67A C80U
U55C G73C G84A G86A
U55C G78C C80U
U55C G86A G88A
U55C G88A
U55C U57C A60C A74G
U55C U70C C75A A87G
U55C U70G
U55C U70G C80U
U55G A60U G86U
U55G A62U G67A
U55G A74C C81G
U55G A87G
U55G A89U
U55G C56A A74U A87G
U55G C56U
U55G C64G C75U
U55G C64G G78U A87G
U55G C68A
U55G C72A
U55G C72U
U55G C72U G86A
U55G C75G
U55G C75U
U55G C79G C83G
U55G C81A
U55G C83G G88A
U55G G59C A89U
U55G G61C C75A
U55G G65C
U55G G67A
U55G G67U A74U
U55G G69A
U55G G84U
U55G U58C A60G C81G G85A
U55G U58G
U55G U70C
U55G U71G
C56A
C56A A60U G69A
C56A A62C
C56A A62C G73C C80G A87G
C56A A62G U71C
C56A A62U U76G G78A
C56A A74C
C56A A74C C75U
C56A C64U U70A U76C C82U
C56A C81A
C56A C81U
C56A C83G
C56A G61A G85A
C56A G65C
C56A G88C
C56A U57G G65C
C56A U63C
C56G
C56G A62G
C56G A62U G78C G84A
C56G A62U G84C
C56G A74C
C56G A74U
C56G A89U
C56G C64G G67A G86C
C56G C79A
C56G C79U
C56G C80A G88C
C56G C81U
C56G G59A A62U
C56G G59A C81G
C56G G61U G67A
C56G G66C C83G
C56G G67A A74U U76A
C56G G67U
C56G G67U A87U

Nonsense suppression, 0.15:
U55C U76A
